Measured values as given in the supplement of paper PMC11417369.
Some of the results follow.

Each sequence was assayed on PfHDP1 homeodomain (GST-tagged) (assay: gcPBM binding intensity (ln(normalized median fluorescence intensity)); higher = stronger DNA binding).
In short: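 GST-tagged P. falciparum DNA-binding domains, expressed in E. coli (about 25 μg on average), were applied for 1 h to an Agilent 4 × 180k array of primer-extended double-stranded 36-bp intergenic genomic probes plus negative controls. The binding buffer was 1× PBS with 1% milk, 0.2 mg/ml BSA, 0.5% salmon testes DNA and 0.03% Triton X-100. Bound protein was detected with Alexa488 anti-GST antibody and scanned at 488 nm. Binding intensity is the highest Masliner-normalised natural-log median intensity across replicate spots of either probe orientation.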
“AATATGACGTAGTGGTGTACACACATGGTACCTTTA [XGTACX_site3147]” was tested, and the “gcPBM binding intensity (ln)” value was 7.36.
In the case of “TTATAAATATAATTTTGTACATATATATATATATAC [XGTACX_site5064]”, the “gcPBM binding intensity (ln)” value is reported as 6.47.
“TTAGAACTATTTTATACATGCAGTTATTTAATACTT [TGCATGCA_site1039]” was tested, and the “gcPBM binding intensity (ln)” value was 6.18.
“TATAGAATAATCTATAAACACACAAACACAACAAAA [CACACA_site9374]” was tested, and the “gcPBM binding intensity (ln)” value was 6.95.
With “AAAAGATAATTATGCACACACACACCCCCACCCAAC [CACACA_site2570]” the “gcPBM binding intensity (ln)” value was 10.5.
“TTTTTTTTTACTGCATGTACTTGATGTAAATAAATT [XGTACX_site3045]” was tested, and the “gcPBM binding intensity (ln)” value was 6.3.
With “AATGGAAATTTTTCTTGTACACATATATGACATGTT [XGTACX_site1691]” the “gcPBM binding intensity (ln)” value was 6.78.
In the case of “CGTATGTGCGGACATGCATGCAATATACAAGAAAAA [TGCATGCA_site145]”, the “gcPBM binding intensity (ln)” value is reported as 7.01.
For “TGTAGCCTGGAGAAGAGTACATAGTATCTGGTAGCT [XGTACX_site4943]”, the “gcPBM binding intensity (ln)” value was 6.37.
With “CTAAATAACTTAAGGTGTACGTTTCCAATAAAAAAA [XGTACX_site1742]” the “gcPBM binding intensity (ln)” value was 6.36.
For “ACATATAAAATGATGCGTACATATTTGATCATATAC [XGTACX_site153]”, the “gcPBM binding intensity (ln)” value was 6.59.
With “TTTTTTTTTTGAAGTGCATGTTACGATGAAAAAAAA [TGCATGCA_site64]” the “gcPBM binding intensity (ln)” value was 7.26.
“GTATATTAATAAACATGTACACAATTTATTTATATT [XGTACX_site1012]” was tested, and the “gcPBM binding intensity (ln)” value was 6.6.
For “TTTTTTTTTAAATGTTGTACATTATATTTGTGTATA [XGTACX_site8354]”, the “gcPBM binding intensity (ln)” value was 6.35.
“TGTCTTGTAAATTATTGTACTATTTAAAGTATACAA [XGTACX_site7864]” was tested, and the “gcPBM binding intensity (ln)” value was 6.45.
In the case of “TTGTATATATTTATATGTACATATATTACTTTTGCT [XGTACX_site2449]”, the “gcPBM binding intensity (ln)” value is reported as 6.34.
With “AAAATACAAACAAGTGGTACTGTTTATAAATGGTTG [XGTACX_site1503]” the “gcPBM binding intensity (ln)” value was 6.09.
In the case of “ATAATATAACAATACGCACACGTATACAAAAAAAAA [CACACA_site5703]”, the “gcPBM binding intensity (ln)” value is reported as 7.05.
“TTTTAAAAAGATCATTAAAAAAAAAAAAAGAACAAA [CACACA_negctrl_site528]” was tested, and the “gcPBM binding intensity (ln)” value was 6.47.
With “AAATAATGGTTAGCTACACACAAAGCATTTTTTGAA [CACACA_site1016]” the “gcPBM binding intensity (ln)” value was 6.21.
“CCATATAAAATATAAAAACACACGTATATATACATA [CACACA_site1511]” was tested, and the “gcPBM binding intensity (ln)” value was 6.67.
In the case of “ATTCAATCTTTTAATACACACAATTTATTTCAAAAC [CACACA_site835]”, the “gcPBM binding intensity (ln)” value is reported as 6.63.
For “ACAAAATGTAGAAAATGTACAAAATTAACAAAAGAA [XGTACX_site5019]”, the “gcPBM binding intensity (ln)” value was 7.13.
For “TGTACATATATATAGATATATATAGATATATATATA [CACACA_negctrl_site1678]”, the “gcPBM binding intensity (ln)” value was 8.32.
